Source: PubChem BioAssay AID588453 (National Center for Advancing Translational Sciences (NCATS), 2011)
“And” between values parts separate entries of the source, which are not always exact repeats. Equal entries are not always repeated. The whole screen tested about 390,000 compounds, of which about 4,000 (1%) were called active. The shares of active, inactive and inconclusive entries below differ from those in the screen. Calls follow the shape of the dose curve; as a rule, active = well fitted inhibition curve with a large enough effect; inconclusive = small, poorly fitted or top-dose-only effect; inactive = no such curve, though single readings can be large or run the other way. Potencies of inconclusive entries are doubtful fits and often do not repeat.

target: Thioredoxin reductase 1, cytoplasmic (Rattus norvegicus) (UniProt O89049); assay: qHTS Assay for Inhibitors of Mammalian Selenoprotein Thioredoxin Reductase 1 (TrxR1): qHTS; details: recombinant rTrxR1, NADPH fluorescence consumption, selenite substrate; series mostly up to 114 µM; activity change, negative = inhibition: at the top concentration; also: nearly all actives have a fitted effect of over 65% in size
Outline: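 Rat TrxR1 (90 nM in the dispensed reagent) was pre-reduced with 400 uM NADPH for 5 min at room temperature, then incubated with compound for 15 min. After 400 uM selenite was added, NADPH fluorescence (Ex 340/Em 450 nm) was followed for 8 min.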
% is scaled to controls: 0 for no effect and ±100 for the full control effect; potency is read from the fitted curve at half-maximal effect; tags tell the direction and shape of the fitted curve.

UniProt O89049, sequence (O89049 whole entry, looked up): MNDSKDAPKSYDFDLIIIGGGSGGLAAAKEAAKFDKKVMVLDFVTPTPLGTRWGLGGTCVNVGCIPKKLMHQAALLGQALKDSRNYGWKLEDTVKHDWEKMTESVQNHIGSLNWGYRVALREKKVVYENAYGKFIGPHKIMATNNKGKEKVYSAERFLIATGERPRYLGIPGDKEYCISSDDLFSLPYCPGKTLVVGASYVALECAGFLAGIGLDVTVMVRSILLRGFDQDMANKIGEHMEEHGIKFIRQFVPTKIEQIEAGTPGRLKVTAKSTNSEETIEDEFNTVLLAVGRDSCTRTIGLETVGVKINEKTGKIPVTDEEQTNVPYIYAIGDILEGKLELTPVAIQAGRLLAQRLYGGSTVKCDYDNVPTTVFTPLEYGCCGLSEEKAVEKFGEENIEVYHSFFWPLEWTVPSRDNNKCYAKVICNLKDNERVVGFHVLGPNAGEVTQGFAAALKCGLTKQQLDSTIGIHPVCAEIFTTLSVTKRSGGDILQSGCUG

Row | SMILES | Potency | activity change, negative = inhibition
1 | COc1ccc(C(C#N)N2N=C(C)CC2c2ccccc2)cc1OC (stereo unspecified) | inconclusive: 44.7 µM [inhibitor, partial curve] | –
2 | CCOC(=O)C1CCN(C(=O)CSc2n[nH]c(-c3ccccc3)n2)CC1 | – | inactive: 16.4% [at 57.1 µM]
3 | COc1ccc(NC(=O)CSc2nc3ccccc3[nH]2)cc1 | – | inactive: 27.2%
4 | O=C(Nc1cccc(-c2cn3ccccc3n2)c1)C1CC1 | – | inactive: 11.3%
5 | CC(CC1C(C#N)=C(N)SC(N)=C1C#N)c1ccccc1 (stereo unspecified) | inconclusive: 39.8 µM [inhibitor, partial curve] | –
6 | CC(=O)c1cccc(NC(=S)NC(=O)c2ccccc2Br)c1 | inconclusive: 25.1 µM [inhibitor, full curve] | –
7 | CNCCCC12CCC(c3ccccc31)c1ccccc12 | inconclusive: 0.0844 µM [inhibitor, full curve, poor fit] | –
8 | CSCCC1NC(=S)N(Cc2ccccc2)C1=O (stereo unspecified) | – | inactive: 2.04%
9 | CCOC(=O)N1CCN(CC(=O)c2ccc3c(c2)CCN3C(C)=O)CC1 | inconclusive: 22.4 µM [inhibitor, single point] | –
10 | CN(Cc1ccco1)C(=O)C(Cc1ccccc1)NS(=O)(=O)c1ccc2c(c1)CCC(=O)N2 (stereo unspecified) | inconclusive: 79.4 µM [inhibitor, single point] | –
11 | O=C1Cc2c([nH]c3ccc(Br)cc23)-c2ccccc2N1 | inconclusive: 4.74 µM [inhibitor, partial curve] and inconclusive: 25.1 µM [inhibitor, single point] | –
12 | CCNC(=O)C(=O)N/N=C/c1cc([N+](=O)[O-])ccc1O | – | inactive: 5.4% [at 57.1 µM]
13 | COc1ccc(S(=O)(=O)n2nc(OC(C)=O)cc2N)cc1 | active: 17.8 µM | –
14 | CCn1c(COc2ccccc2)nnc1SCC(=O)c1cccc([N+](=O)[O-])c1 | inconclusive: 20 µM [inhibitor, full curve] | –
15 | CCN1CCN(C(=O)c2ccc3nc(-c4ccccc4)c(-c4ccccc4)nc3c2)CC1 | inconclusive: 70.8 µM [inhibitor, partial curve] | –
16 | Cc1ccc(C(=O)ONc2ccc(N=O)cc2)cc1 | inconclusive: 56.2 µM [inhibitor, partial curve] | –
17 | O=C1NN(c2ccccc2)C(=O)/C1=C/c1ccc(-c2ccc(C(=O)O)cc2)o1 | inconclusive: 35.5 µM [inhibitor, partial curve] | –
18 | N#CC1=C(N)N(c2ccc(Cl)c(Cl)c2)C(=O)C1 | – | inactive: 2.49%
19 | CCOC(=O)[C@H]1[C@H]2COc3ccccc3[C@@H]2N2C(=O)[C@@H](C)NC(=O)[C@@]12C | inconclusive: 70.8 µM [inhibitor, partial curve] | –
20 | COC(=O)COc1cc(OCC(=O)OC)c2c(C)c(Cl)c(=O)oc2c1 | inconclusive: 89.1 µM [inhibitor, single point] | –
21 | COc1ccc(-n2nnnc2SCC(=O)NCc2ccco2)cc1OC | inconclusive: 14.1 µM [inhibitor, partial curve] | –
22 | CC(=O)CC1(C)OC(N)=C(C#N)C1(C#N)C#N (stereo unspecified) | inconclusive: 25.1 µM [inhibitor, partial curve, poor fit] | –
23 | N#C/C(=C\c1ccc(-c2ccccc2C(=O)O)o1)c1nc2ccccc2[nH]1 | inconclusive: 79.4 µM [inhibitor, partial curve, poor fit] | –
24 | CCOc1ccccc1C1C(C#N)=C(N)Oc2cc(C)n(Cc3ccccn3)c(=O)c21 (stereo unspecified) | inconclusive: 14.1 µM [inhibitor, partial curve] | –

Row | SMILES | Potency | activity change, negative = inhibition
25 | CCc1ccc(CNC(=O)c2ccc(CSc3nc4ccncc4n3Cc3ccc(OC)cc3)cc2)cc1 | – | inactive: 44.9%
26 | Cc1ccc(CNC(=O)C2c3ccccc3C(=O)N(C)C2c2c[nH]c3ccccc23)o1 (stereo unspecified) | – | inactive: -37.7%
27 | CCOC(=O)Cc1nnc(NC(=O)CSc2ncc(-c3ccccc3)nn2)s1 | – | inactive: 15.1% [at 57.1 µM]
28 | CCN1CCN(C(=O)C(=O)c2cn(CC(=O)N3CCCCCC3)c3ccccc23)CC1 | inconclusive: 17.8 µM [inhibitor, full curve] | –
29 | O=C(/C=C/c1ccc(Br)o1)OCc1ccccc1 | inconclusive: 20 µM [inhibitor, full curve] | –
30 | COc1cc(C2NC(=O)NC(c3ccccc3)=C2C(C)=O)ccc1OCC(=O)O (stereo unspecified) | inconclusive: 1.12 µM [inhibitor, partial curve, poor fit] | –
31 | Cc1cc(C)c(NC(=O)c2cc(S(=O)(=O)N3CCOCC3)ccc2F)c(C)c1 | – | inactive: 28% [at 57.1 µM]
32 | c1ccc(CSc2nnc(SCc3ccccn3)s2)nc1 | – | inactive: 3.72%
33 | O=C(O)C1OC2OC3(CCCCC3)OC2C2OC3(CCCCC3)OC12 (stereo unspecified) | – | inactive: 17% [at 57.1 µM]
34 | O=C1NC2(CCCCC2)C(=O)N1/N=C/c1ccc(O)cc1O | inconclusive: 35.5 µM [inhibitor, single point] | –
35 | COc1cc(/C=C2\N=C(C)OC2=O)cc(OC)c1OC | active: 44.7 µM | –
36 | CCOC(=O)C1CCN(Cc2ccc(C(=O)OC)cc2)CC1 | inconclusive: 35.5 µM [inhibitor, single point] | –
37 | COC(=O)c1c(-c2cccnc2)csc1NC(=O)c1cc(C)on1 | – | inactive: 14.6%
38 | O=C(c1ccc2nc(-c3ccco3)c(-c3ccco3)nc2c1)N1CCN(c2ncccn2)CC1 | active: 12.6 µM | –
39 | Nc1c(S(=O)(=O)c2ccccc2)c2nc3ccccc3nc2n1Cc1ccco1 | inconclusive: 44.7 µM [inhibitor, single point] | –
40 | COCCn1nnnc1CN(CCCN1CCOCC1)Cc1cc2c(C)ccc(C)c2[nH]c1=O | inconclusive: 50.1 µM [inhibitor, partial curve, poor fit] | –
41 | Cc1ccc(C)n1-c1ccc(-n2cnnn2)cc1 | inconclusive: 4.47 µM [inhibitor, full curve, poor fit] | –
42 | COCc1[nH]nc2c1C(c1c(F)cccc1Cl)C(C#N)=C(N)O2 (stereo unspecified) | – | inactive: 7.13% [at 57.1 µM]
43 | COc1ccc(NC(=O)Cc2nnc(SCC(=O)Nc3ccccc3)n2C)cc1 | inconclusive: 35.5 µM [inhibitor, single point] | –
44 | O=c1[nH]c(CCl)nc2cc(-c3ccc(F)cc3)sc12 | inconclusive: 39.8 µM [inhibitor, partial curve] | –
45 | Nc1cc(=O)[nH]c(=S)[nH]1 | – | inactive: -6.99%
46 | N#CC1(C#N)CC(C=O)=C(N)C1(C#N)CC(=O)C12CC3CC(CC(C3)C1)C2 (stereo unspecified) | inconclusive: 31.6 µM [inhibitor, partial curve, poor fit] | –
47 | N#C/C(=C\c1ccc(O)c(O)c1)C(=O)NCCc1ccccc1 | inconclusive: 56.2 µM [inhibitor, partial curve] and inconclusive: 13.4 µM [inhibitor, partial curve, poor fit] | –
48 | COc1ccc(NC(=O)c2ccco2)cc1NC(=O)c1ccc(OC(C)C)cc1 | – | inactive: -5.46%

Row | SMILES | Potency | activity change, negative = inhibition
49 | CC(=O)c1sc2nsc(SCCN3CCCC3)c2c1N | – | inactive: 6.5% [at 57.1 µM]
50 | O=C(COC(=O)c1ccc([N+](=O)[O-])o1)NC1CCS(=O)(=O)C1 (stereo unspecified) | active: 3.55 µM | –
51 | Cc1cccc(C)c1NC(=S)NCCc1ccc(O)c(O)c1 | inconclusive: 28.2 µM [inhibitor, single point] | –
52 | O=C(COC(=O)c1ccc(O)cc1O)Nc1ccc(Cl)cn1 | – | inactive: -2.11%
53 | COc1ccc([C@H]2[C@@H](C#N)[C@H](C#N)N3CCCN23)cc1 | inconclusive: 44.7 µM [inhibitor, partial curve, poor fit] | –
54 | O=C1C2C3C=CC(CO)(O3)C2C(=O)N1c1ccccc1-c1ccccc1 (stereo unspecified) | active: 0.891 µM | –
55 | CC(C)Oc1ccc(C(=O)NC2CCS(=O)(=O)C2)cc1 (stereo unspecified) | – | inactive: 5.89%
56 | COc1ccc2c(=O)cc(-c3cccnc3)oc2c1OC | inconclusive: 79.4 µM [inhibitor, single point] | –
57 | Cc1ccc(-c2nnc(N(C)C(=O)c3ccccn3)s2)cn1 | inconclusive: 70.8 µM [inhibitor, single point] | –
58 | COc1cccc(/C=C2\Oc3cc(OCC(=O)N4CCCC4)ccc3C2=O)c1OC | – | inactive: -7.22%
59 | CCN(CC)c1ccc(-c2nc(-c3ccccn3)no2)cc1[N+](=O)[O-] | inconclusive: 50.1 µM [inhibitor, partial curve, poor fit] | –
60 | O=C(NC(=S)Nc1ccc(S(=O)(=O)N2CCCCC2)cc1)c1cccs1 | inconclusive: 10 µM [inhibitor, full curve] | –
61 | O=C(CCl)N=c1sccn1Cc1cccc2ccccc12 | inconclusive: 31.6 µM [inhibitor, partial curve] | –
62 | COc1ccc2c(c1)C(=O)/C(=C/C=C/c1ccccc1)CC2 | inconclusive: 50.1 µM [inhibitor, partial curve] | –
63 | CCN(CC)c1ccc(C=C2C(=O)OC3(CCCCC3)OC2=O)cc1 | inconclusive: 79.4 µM [inhibitor, single point] | –
64 | O=C(c1ccco1)N(CCC(c1ccccc1)c1ccco1)Cc1ccccc1 (stereo unspecified) | inconclusive: 44.7 µM [inhibitor, partial curve, poor fit] | –
65 | COc1ccc(/C=C/C(=O)N2CCN(C)CC2)cc1S(=O)(=O)N1CCCCC1 | – | inactive: 7.21%
66 | CCN(CC)c1cccc(OC2=NS(=O)(=O)c3ccccc32)c1 | – | inactive: -0.131%
67 | FC(F)(Cl)c1nnc2ccc(Sc3ccccn3)nn12 | inconclusive: 70.8 µM [inhibitor, partial curve, poor fit] | –
68 | COc1ccc(NC(=O)CC2C(=O)N(c3cccc(OC)c3)C(=O)N2C(C)C)cc1 (stereo unspecified) | – | inactive: 6.11% [at 57.1 µM]
69 | Cc1c(NC(=S)N/N=C/c2ccc(N(C)C)cc2)c(=O)n(-c2ccccc2)n1C | inconclusive: 79.4 µM [inhibitor, single point] | –
70 | CCCCCCn1c(/C=C/c2ccccc2)nc2ccccc21 | – | inactive: 49.7%
71 | O=C(Nc1ccc(N2CCOCC2)cc1N1CCOCC1)c1cccc([N+](=O)[O-])c1 | inconclusive: 79.4 µM [inhibitor, partial curve, poor fit] | –
